Out of some 360,000 compounds screened, about 7,500 (2.1%) were called active. The inconclusive results got no clear call from the source; some entries with a clear call stand among them for comparison. Calls come from the whole dose curve; as a rule, active = well fitted cell-killing curve with a large enough effect; inconclusive = small, poorly fitted or top-dose-only effect, or effect the other way, or another doubt; inactive = no such curve, though single readings can be large or run the other way. No potency is given beside an inconclusive call; the fits are too rough.
Assay: qHTS for induction of synthetic lethality in tumor cells producing 2HG: qHTS for the HT-1080-IDH1KD cell line;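 for activity, negative = toxicity: 0% = DMSO wells and -100% = cell-free medium wells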
Conditions: HT-1080 IDH1 knockdown viability, ATP luminescence, 48 h; activity, negative = toxicity: at 46.1 µM (top of the series) unless noted
Procedure, shortened: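 IDH1KD HT-1080 cells, 750/well, RPMI + 5% FBS; compound pinned after 2 h settling; 48 h, 37 °C; CellTiter-Glo luminescence; % activity normalised to DMSO and no-cell wells; curves fitted, classed by r2 and efficacy.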
Potency is the fitted concentration of half-maximal effect; tags give direction and shape of the fitted curve.

SMILES	Potency	activity, negative = toxicity
C=CCOc1ccccc1CN(C(=O)CCl)c1ccc2c(c1)OCO2	active: 2.59 µM	
CCN1CCN(Cc2ccc(NC(=O)c3cc(NC(=O)c4cc(C)on4)cc(OC)c3)cc2C(F)(F)F)CC1	inconclusive [cytotoxic, single point]	
O=[N+]([O-])c1ccc(O)c(/C=N/Nc2ccccn2)c1	active: 10.3 µM	
CCN1CCCC1CN(Cc1cc2ccc(C)cc2[nH]c1=O)C(=S)Nc1cccc(OC)c1 (configuration not stated)	active: 18.4 µM	
COc1ccccc1NS(=O)(=O)c1cccc(NC(=O)C2CC2)c1		inactive: 0.25%
CCOC(=O)C1=C(C)OC(N)=C(C#N)C1c1cc(F)ccc1F (configuration not stated)	inconclusive [cytotoxic, single point]	
CC(N)C(=O)NC(C(=O)NC(C)C(=O)Nc1cccc2ccccc12)C(C)C (configuration not stated)		inactive: 7.91%
CCc1c(C(=O)NCc2ccccc2Cl)[nH]c(C)c1C(C)=O		inactive: -5.97%
O=c1c(Cl)nc2cc(Cl)ccc2n1CCNc1ncc(C(F)(F)F)cc1Cl		inactive: 3.28%
CN(Cc1ccccc1)C(=O)COC(=O)c1ccc[nH]c1=O		inactive: -3.7%
CCn1c(C)c(/C=N/Nc2nc3ccccc3s2)c2ccccc21	active: 8.91 µM	
COc1cc(C(=O)OCc2csc(CC(=O)Nc3ccccc3C)n2)ccc1OCC(C)C		inactive: -15.5%
O=[N+]([O-])c1cccc(OCC(O)CN2CCN(S(=O)(=O)c3cc(Cl)ccc3Cl)CC2)c1 (configuration not stated)	inconclusive [cytotoxic, single point]	
O=C(CN1C(=O)c2ccccc2S1(=O)=O)NCc1cccs1		inactive: 13.7%
COc1ccc(C2CC(=O)c3cnn(-c4nc(C)cc(C)n4)c3C2)cc1 (configuration not stated)	inconclusive [cytotoxic, single point]	
O=c1c(-c2ccc([N+](=O)[O-])cc2)coc2c(O)c(O)ccc12	inconclusive [cytotoxic, single point]	
c1ccc(Cc2nc3ccccc3n2Cc2ccccc2)cc1	inconclusive [cytotoxic, single point]	
O=C(NCc1ccccc1)C1CCCN(C(=O)NCc2ccccc2)C1 (configuration not stated)		inactive: 7.51%
O=C(/C=C/c1cccs1)Nc1ccc(Br)cn1	active: 0.184 µM	
Cc1[nH]c2ccc(C(=O)OC(C)C(=O)NCc3ccccc3)cc2c1C (configuration not stated)	inconclusive [cytotoxic, single point]	
Cc1ccc(NCC(=O)N=Nc2c(O)[nH]c3ccc([N+](=O)[O-])cc23)cc1	inconclusive [cytotoxic, single point]	
C[C@@H]1CN([C@H](C)CO)S(=O)(=O)c2ccc(C#Cc3ccccc3)cc2O[C@H]1CN(C)C(=O)Nc1ccc2c(c1)OCO2	inconclusive [cytotoxic, single point]	
CCOc1ccc2nc(CN3CCN(Cc4ccccc4OCC)C(CCO)C3)ccc2c1 (configuration not stated)		inconclusive: -35.7% [cytotoxic]
Cc1cc2oc(=O)c(CC(=O)NCCCN(C)C)c(C)c2c2occ(C(C)(C)C)c12	active: 5.8 µM	
COc1ccc(S(=O)(=O)NCc2csc(C)n2)cc1OC		inactive: 3.24%
O=C(NC(=S)Nc1ccccc1O)c1cncc(Br)c1	inconclusive [cytotoxic, partial curve]	

SMILES	Potency	activity, negative = toxicity
CN(C(=O)c1cccc(NC(=O)Cc2ccc(NC(=O)C3CCN(C(=O)C4CCC4)CC3)cc2)c1)C1CCCCC1	inconclusive [cytotoxic, partial curve]	
CNc1nc(Nc2ccc(Br)cc2)nc(N)c1[N+](=O)[O-]		inconclusive: -37.6% [cytotoxic]
Cc1ccc(C2=NOC(=O)/C2=C\C=C\c2ccccc2)cc1	active: 13 µM	
COc1cc(CNCCNC(=O)c2nonc2N)ccc1OCc1ccc(Cl)cc1	active: 16.4 µM	
O=C(c1ccc(Cl)cc1)C(CN1CCCC1)c1ccccc1 (configuration not stated)	active: 20.6 µM	
O=C(CCC(=O)c1ccc(F)cc1)OCc1nnc(-c2ccc([N+](=O)[O-])cc2)o1		inactive: 3.2%
CN(C)c1cc[n+](Cc2c(Cl)cccc2Cl)cc1	inconclusive [cytotoxic, partial curve, poor fit]	
O=C(c1ccccc1)C1OC1C(=O)c1ccccc1 (configuration not stated)	inconclusive [cytotoxic, partial curve, poor fit]	
C=C(NC(=O)C(=C)NC(=O)c1csc(C2=NC3c4csc(n4)C4NC(=O)c5csc(n5)C(C(C)(O)C(C)O)NC(=O)C5CSC(=N5)/C(=C/C)NC(=O)C(C(C)O)NC(=O)c5csc(n5)C3(CC2)NC(=O)C(C)NC(=O)C(=C)NC(=O)C(=C)NC(=O)C(C(C)C)NC2C=Cc3c(C(C)O)cc(nc3C2O)C(=O)OC4C)n1)C(N)=O (configuration not stated)	active: 5.17 µM	
COc1ccc(-c2cnc3c(NC=O)cc(-c4cccc(NS(C)(=O)=O)c4)cn23)cc1OC	active: 4.61 µM	
Cn1c(SCc2cccc(F)c2)nnc1-c1ccncc1		inactive: -2.12%
Cc1nc2c3cc(F)ccc3n(Cc3ccccc3F)c2s1	active: 18.4 µM	
COc1ccc(S(=O)(=O)Nc2ccccc2C(=O)N2CCCC2)cc1OC		inactive: 16.8%
C(=N\N1CCN(Cc2cccc3ccccc23)CC1)/c1cccnc1		inactive: -1.25%
CCOC(=O)c1c(CSc2ccc(CC)cc2)oc2ccc(O)c(CN(C)C)c12	active: 20.6 µM	
COc1cccc(/C=N/NC(=O)CNC(=O)c2ccncc2)c1O		inconclusive: -6.34% [cytotoxic]
COc1ccccc1NC(=O)N(CCN1CCCC1)Cc1cc2cc(C)ccc2[nH]c1=O	inconclusive [cytotoxic, single point]	
O=C(N/N=C1\CCSC1)c1cc(Cl)ccc1O	inconclusive [cytotoxic, single point]	
CC1(C(=O)NS(=O)(=O)c2ccc(F)cc2F)CCN1C(=O)C/C=C/c1ccccc1 (configuration not stated)	inconclusive [rising, single point]	
O=C(CSc1ncn[nH]1)N1N=C2/C(=C/c3ccccc3)CCCC2C1c1ccccc1 (configuration not stated)	inconclusive [cytotoxic, partial curve]	
CC1CN(CC(O)COC(c2ccc(Cl)cc2)c2ccc(Cl)cc2)CC(C)O1 (configuration not stated)	inconclusive [cytotoxic, single point]	
c1ccc(Nc2nc(N3CCOCC3)nc(N3CCOCC3)n2)cc1		inactive: -17.4%
Cc1cc(C)cc(NC2=NCC(=O)N2Cc2ccccc2)c1		inactive: -6.63%
O=Cc1ccc(-c2c(-c3ccccc3)oc3c2C(OCCCCO)CCC3)o1 (configuration not stated)		inconclusive: -30.2% [cytotoxic]
Cc1ccc(S(=O)(=O)c2c(N)n(CCCN(C)C)c3nc4ccccc4nc23)cc1		inactive: -13.2%
OC(CN1CCOCC1)Cn1cnc2ccccc21 (configuration not stated)		inactive: 9.88%

SMILES	Potency	activity, negative = toxicity
CCc1nnc(NC(=O)/C=C/c2ccc(C)o2)s1		inconclusive: 31.7%
CNc1cncc(-c2ccccc2CO)n1		inactive: 17%
CC(C)Nc1ccc(Nc2ccnc3cc4ccccc4cc23)cc1	active: 5.17 µM	
NC(c1csc(NC(=O)c2cccc(OC(F)(F)F)c2)n1)c1ccccc1Cl (configuration not stated)	inconclusive [cytotoxic, partial curve]	
C=CC(=O)N1C/C(=C/c2ccc(Cl)cc2)C(=O)/C(=C\c2ccc(Cl)cc2)C1	active: 2.91 µM	
COc1ccc(Nc2nc3ccccc3n3nnnc23)cc1		inconclusive: 0.673% [cytotoxic]
C[C@H]1CN=C(N(C)C)N1CC1CCC(C(C)(C)C)CC1 (some centres not stated)	inconclusive [cytotoxic, partial curve]	
CCN1CCN(C(=O)c2ccc3c(c2)N(Cc2ccccc2)C(=O)c2ccccc2S3(=O)=O)CC1		inactive: 6.63%
Cc1ccc(OCC(=O)Nc2ccc(-c3nnc(-c4ccco4)o3)cc2)cc1	inconclusive [cytotoxic, single point]	
C[C@H]1CN([C@@H](C)CO)S(=O)(=O)c2ccc(Br)cc2O[C@H]1CN(C)C(=O)Cc1ccccn1		inactive: -3.24%
COc1ccc(-c2nc(CC(=O)O)cs2)cc1		inconclusive: 31.9%
O=C(CSc1nnc(CNC(=O)c2ccco2)o1)c1ccc(Cl)cc1		inactive: 11%
O=C(NNc1ccccc1)C(=O)NNS(=O)(=O)c1ccc([N+](=O)[O-])cc1	active: 5.8 µM	
COc1ccc(-c2ccc(C(=O)NCCc3ccccc3)c3occc23)c(C)c1	inconclusive [cytotoxic, single point]	
Cc1cccc(CSc2ncnc3ccccc23)c1	inconclusive [cytotoxic, single point]	
COC(=O)C1C(=O)c2c([nH]c(C(=O)OCC3CCCO3)c2C)CC1C (configuration not stated)		inactive: -5.25%
COc1cc(C2=NOC(C(=O)NCc3ccc(F)cc3)C2)cc(OC)c1OC (configuration not stated)	active: 0.708 µM	
CC(=O)Nc1ccc(-n2c(=O)c3ccccc3c3ccccc3c2=O)cc1		inconclusive: -27.1% [cytotoxic]
COc1ccc(/C=C/c2cc(=O)c3cc(Cl)ccc3o2)cc1		inactive: 7.7%
CCCCN=Cc1c(C)[nH]n(-c2ccccc2)c1=S		inactive: -2.04%
O=C(C=Cc1ccccc1)Nc1ccccc1		inactive: -7.06%
O=C(NC1CCCCC1)C(c1cccnc1)N(C(=O)CCl)c1ccc(F)cc1 (configuration not stated)	active: 10.3 µM	
NC(c1ccccc1)c1csc(Nc2ccc(C(F)(F)F)cn2)n1 (configuration not stated)	inconclusive [cytotoxic, single point]	
COCC(=O)N(Cc1cc2ccc(C)cc2[nH]c1=O)c1ccc(OC)cc1	inconclusive [cytotoxic, single point]	
CC(C)c1ccc2c(c1)[C@H]1OCC[C@H]1[C@@H](c1cccs1)N2	active: 3.26 µM	
